The assay concerns the target Peptide-3. The assay is described as follows: MST.

B1: Neuropilin-1 (protein)
chain: not shown
As for B1, the Kd was 81 nM.

The term Kd denotes the constant that tells how readily two partners part at equilibrium. A higher Kd goes with weaker binding.

Source of the values: publication PMC12689914 (2025).
